Patent US12116397B2, “IL-IR-I binding polypeptide” (Swedish Orphan Biovitrum AB (publ), priority 2017, dated 2024)

T1: hIL-1R-I (Homo sapiens, UniProt P14778)
T1 construct: purchased R&D Systems 269-1R/CF
T1 sequence (P14778 18-569): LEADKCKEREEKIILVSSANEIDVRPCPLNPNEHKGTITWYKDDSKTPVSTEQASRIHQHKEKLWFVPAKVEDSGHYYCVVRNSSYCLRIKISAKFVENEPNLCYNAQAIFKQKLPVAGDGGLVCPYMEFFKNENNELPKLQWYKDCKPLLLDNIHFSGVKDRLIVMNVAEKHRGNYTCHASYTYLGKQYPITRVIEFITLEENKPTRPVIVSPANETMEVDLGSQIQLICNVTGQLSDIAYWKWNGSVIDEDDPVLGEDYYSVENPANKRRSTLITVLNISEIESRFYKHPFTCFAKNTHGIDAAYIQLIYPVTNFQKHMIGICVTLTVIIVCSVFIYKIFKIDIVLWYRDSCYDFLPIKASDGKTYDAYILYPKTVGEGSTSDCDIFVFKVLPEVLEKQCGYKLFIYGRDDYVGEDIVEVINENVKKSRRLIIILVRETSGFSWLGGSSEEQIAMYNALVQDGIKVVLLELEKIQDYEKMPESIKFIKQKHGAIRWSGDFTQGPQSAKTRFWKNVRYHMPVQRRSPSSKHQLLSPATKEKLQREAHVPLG


Columns and labels:
[1] = In vivo pharmacokinetics of IL-1R-I binding fusion proteins in rats; set-up: species or system male Sprague-Dawley rats; details: male rats
Experimental: The IL-1R-I binding fusion proteins PS10534, PS10535, PS10536, PS10537, PS10538 and PS10539 (see Table 22, SEQ ID NO:1646-1651) were evaluated in this study. All six test items were constituted as a solution in 25 mM sodium phosphate and 125 mM sodium chloride, pH 7.0.
The pharmacokinetic properties of the six fusion proteins were investigated in male Sprague-Dawley rats. For each test item, three rats were given an i.v. single dose of 15 mg/kg (2.5 ml/kg) injected in the lateral tail vein and another three rats were given a s.c. single dose of 30 mg/kg (5 ml/kg) injected in the neck region. Blood samples for serum preparation were collected pre dosing and at 5 and 20 min, 1, 4, 8, 24, 48, 72 and 96 hrs post i.v. dosing, or 20 min, 1, 4, 8, 24, 48, 72, 96 and 120 hrs post s.c. dosing.
Determination of fusion protein levels in rat serum samples was performed by enzyme-linked immunosorbent assay (ELISA). The ELISA assay employed the quantitative sandwich enzyme immunoassay technique.
In brief; a goat polyclonal anti-Z antibody recognizing the Z variant domain of the IL-1R-I binding fusion protein (produced in house, Affibody AB) was coated onto a microplate. Unbound polyclonal antibody was washed away and casein was added as blocking agent to reduce unspecific binding to the plastic surface. After removal of unbound casein by a second wash step, standards and samples were pipetted to the wells and any fusion protein present was bound to the immobilized antibody. After washing away any unbound substances, a HRP labeled Swine anti-rabbit antibody (Dako, cat. no. P0399) was added. Following a wash to remove any unbound anti-rabbit HRP reagent, a substrate solution was added to the wells and color developed in proportion to the amount of fusion protein bound in the initial step. The color development was stopped and the intensity of the color was measured.
The pharmacokinetic analysis was based on median serum concentration versus time data from each dose group. The observed maximum concentration (Cmax) and the time to maximum serum concentration (tmax) were taken directly from the bioanalytical data. Other pharmacokinetic parameters, i.e. clearance (CL), apparent clearance following s.c. administration (CL/F), apparent volume of distribution at steady-state (Vss), mean residence time (MRT) and terminal half-life (t1/2z), were estimated by non-compartmental analysis using Phoenix WinNonlin software version 6.3 (Pharsight Corp., USA). Estimation of the terminal slope following i.v. dosing was based on four data points, from 24 to 96 hrs. Estimation of the terminal slope following s.c. dosing was based on five data points, from 24 to 120 hrs. Calculation of the subcutaneous bioavailability (F) was performed using Microsoft Excel.

[2] = Circular dichroism (CD) spectroscopy analysis, melting temperature and refolding; assay type: physicochemical; details: for Melting temperatures (Tm): His6-tagged Z variants, CD variable temperature measurement, Table 21; for thermo-stability and α-helical content versus Z variants having alanine in position X5: His6-tagged, valine or isoleucine in position X5 of the BM (Example 9)
Experimental: Purified His6-tagged Z variants were diluted to 0.5 mg/ml in PBS. For each diluted Z variant, a CD spectrum at 250-195 nm was obtained at 20° C. In addition, a variable temperature measurement (VTM) was performed to determine the melting temperature (Tm). In the VTM, the absorbance was measured at 221 nm while the temperature was raised from 20 to 90° C., with a temperature slope of 5° C./min. A new CD spectrum was obtained at 20° C. after the heating procedure in order to study the refolding ability of the Z variants. The CD measurements were performed on a Jasco J-810 spectropolarimeter (Jasco Scandinavia AB) using a cell with an optical path length of 1 mm.
CD was analyzed for His6-tagged Z variants, as described in Example 2.

hIL-1R-I = biological target: T1, hIL-1R-I; test: Biacore affinity/kinetic analysis of His6-tagged Z variants, human IL-1R-I; assay type: binding; details: His6-Z polypeptides binding to human IL-1R-I, Biacore, Table 19; for Kd: read-out: KD
Experimental: Affinities (KD) for human and cynomolgus IL-1R-I were determined for His6-tagged Z variants using a Biacore 2000 instrument (GE Healthcare). hIL-1R-I or cIL-1R-I-His6 was immobilized on the carboxylated dextran layer in different flow cells of a CM5 chip (GE Healthcare, cat. no. BR100012). The immobilization was performed using amine coupling chemistry according to the manufacturer's protocol. Acetate pH 4.5 (GE Healthcare, cat. no. BR100350) was used for ligand dilution and HBS-EP (GE Healthcare, cat. no. BR100188) was used as running buffer. One flow cell surface on the chip was activated and deactivated for use as blank during analyte injections. In the kinetic experiment, HBS-EP was used as running buffer, the flow rate was 50 μl/min and the temperature was 25° C. The analytes, i.e. the Z variants, were each diluted in HBS-EP buffer to final concentrations of 40 nM and 10 nM, and were injected over the target chip surfaces for 2 min, followed by dissociation in running buffer for 8 min. Kinetic constants were calculated from the obtained sensorgrams using a 1:1 binding model, in the BiaEvaluation software 4.1 (GE Healthcare).
The kinetic constants (kon and koff) and affinities (KD) for human and cynomolgus IL-1R-I were determined for His6-tagged Z variants using a Biacore 2000 instrument (GE Healthcare). The experiment was run essentially as described in Example 2, using 100, 10 and 1 nM of the Z variants. The analyte injection time was 3 min followed by 15 min dissociation and 2×5 s glycine pH 3.0 (GE Healthcare, cat. no. BR100357), supplemented with 0.5 M NaCl, was used for regeneration of the surfaces between the cycles. Kinetic constants were calculated from the obtained sensorgrams of two or three concentrations of the respective Z variant, using a 1:1 binding model in the BiaEvaluation software 4.1 (GE Healthcare). His6-tagged Z12967 was included in the assay for comparison.
The kinetic constants (kon and koff) and affinities (KD) for human and cynomolgus IL-1R-I were determined for His6-tagged Z variants using a Biacore 2000 instrument (GE Healthcare). The experiment was run essentially as described in Example 5, using 48, 12, 3 and 0.75 nM of the Z variants. The analyte injection time was 3 min followed by 6 min dissociation and 2×5 s glycine pH 3.0, supplemented with 0.5 M NaCl, was used for regeneration of the surfaces between the cycles. Kinetic constants were calculated from the obtained sensorgrams of three or four concentrations of the respective Z variant, using a 1:1 binding model in the BiaEvaluation software 4.1 (GE Healthcare). His6-tagged Z12967 (SEQ ID NO:9), Z16065 (SEQ ID NO:268), Z16163 (SEQ ID NO:359) and Z18557 (SEQ ID NO:1205) were included in the assay for comparison.

[3] = intravenous single dose 15 mg/kg
[4] = subcutaneous single dose 30 mg/kg

| Molecule | koff (hIL-1R-I) [s⁻¹] | kon (hIL-1R-I) [M⁻¹ s⁻¹] | Kd (hIL-1R-I) [nM] | MRT [1, 3] [h] | Vss [1, 3] [L/kg] | t1/2z [1, 3] [h] | Cmax [1, 4] [nM] | F [1, 4] [%] | MRT [1, 4] [h] | Vz/F [1, 4] [L/kg] | t1/2z [1, 4] [h] | tmax [1, 4] [h] | Melting temperatures (Tm) [2] [°C] | thermo-stability and α-helical content versus Z variants having alanine in position X5 [2] |
| --- | --- | --- | --- | --- | --- | --- | --- | --- | --- | --- | --- | --- | --- | --- |
| PS10538: Fc fused IL-1R-I binding Z variant (protein, Engineered IL-1R-I binding polypeptide) AEAKYAKELEAIQMEIFHLPNLTRRQYTAFIRKLLDDPSQSSELLSEAKKLSESQAPKASGGGGSGGGGS[sequence of human IgG1 Fc omitted] | – | – | – | 61.6 | 0.146 | 50.4 | 796 | 47.2 | 91.7 | 0.509 | 59.0 | 24 | – | – |
| PS10539: Fc fused IL-1R-I binding Z variant (protein, Engineered IL-1R-I binding polypeptide) AEAKYAKETEAVQMEIFALPNLTRRQYTAFIRKLLDDPSQSSELLSEAKKLSESQAPKASGGGGSGGGGS[sequence of human IgG1 Fc omitted] | – | – | – | 55.5 | 0.113 | 48.3 | 886 | 52.2 | 86.2 | 0.424 | 54.3 | 24 | – | – |
| Z19180: IL-1R-I binding Z variant with valine or isoleucine in position X5 (protein) AQHDEALEVDAKYAKEVEIIQMEIFHLPNLTRRQYTAFIRKLLDDPSQSSELLSEAKKLNDSQAPKVDYVLAEAKVLANRELDKYGVSDYYKNLINNAKTVEGVKALIDEILAALPYVPG | 0.0031 | 2.2e+07 | 0.14 | – | – | – | – | – | – | – | – | – | 58 | not substantially different |
| Z19158: IL-1R-I binding Z variant with valine or isoleucine in position X5 (protein) AQHDEALEVDAKYAKETEEIQMEIFALPNLTRRQYTAFIRKLLDDPSQSSELLSEAKKLNDSQAPKVDYVLAEAKVLANRELDKYGVSDYYKNLINNAKTVEGVKALIDEILAALPYVPG | 0.0044 | 2.7e+07 | 0.16 | – | – | – | – | – | – | – | – | – | 55 | not substantially different |
| Z18769 (protein) AQHDEALEVDAKYAKEVEEVQMEIFHLPNLTRRQYTAFIRKLLDDPSQSSELLSEAKKLNDSQAPKVDYVLAEAKVLANRELDKYGVSDYYKNLINNAKTVEGVKALIDEILAALPYVPG | 0.0031 | 1.9e+07 | 0.16 | – | – | – | – | – | – | – | – | – | 59 | – |

Second part, led by results:

| koff (hIL-1R-I) [s⁻¹] | kon (hIL-1R-I) [M⁻¹ s⁻¹] | Kd (hIL-1R-I) [nM] | Molecule | MRT [1, 3] [h] | Vss [1, 3] [L/kg] | t1/2z [1, 3] [h] | Cmax [1, 4] [nM] | F [1, 4] [%] | MRT [1, 4] [h] | Vz/F [1, 4] [L/kg] | t1/2z [1, 4] [h] | tmax [1, 4] [h] | Melting temperatures (Tm) [2] [°C] | thermo-stability and α-helical content versus Z variants having alanine in position X5 [2] |
| --- | --- | --- | --- | --- | --- | --- | --- | --- | --- | --- | --- | --- | --- | --- |
| 0.0064 | 1.4e+07 | 0.45 | Z19075: IL-1R-I binding Z variant with valine or isoleucine in position X5 (protein) AQHDEALEVDAKYAKEVEIIQYEIFGLPNLTRKQYTAFIRKLLDDPSQSSELLSEAKKLNDSQAPKVDYVLAEAKVLANRELDKYGVSDYYKNLINNAKTVEGVKALIDEILAALPYVPG | – | – | – | – | – | – | – | – | – | 56 | not substantially different |
| 0.0055 | 3.6e+07 | 0.15 | Z18920: IL-1R-I binding Z variant with valine or isoleucine in position X5 (protein) AQHDEALEVDAKYAKETEEIQMEIFRLPNLTRRQYTAFIRKLLDDPSQSSELLSEAKKLNDSQAPKVDYVLAEAKVLANRELDKYGVSDYYKNLINNAKTVEGVKALIDEILAALPYVPG | – | – | – | – | – | – | – | – | – | 56 | not substantially different |
| 0.0055 | 2.1e+07 | 0.26 | Z19182: IL-1R-I binding Z variant with valine or isoleucine in position X5 (protein) AQHDEALEVDAKYAKEVEAIQMEIFQLPNLTRRQYTAFIRKLLDDPSQSSELLSEAKKLNDSQAPKVDYVLAEAKVLANRELDKYGVSDYYKNLINNAKTVEGVKALIDEILAALPYVPG | – | – | – | – | – | – | – | – | – | 62 | not substantially different |
